In PubChem BioAssay (Tox21) one finds Potency data, which are given here for 4 compounds.

A structure can be active in one record and inactive in another. Calls follow the shape of the full dose curve. A number of entries come with more than one value. The list is limited to them. There may be further records. Results that share an entry repeat one measurement (runs, samples, wells, individuals or studies). Records carry a tag for their origin. Letters count within one entry.
Potency is read from the fitted curve at half-maximal effect.

The assay concerns the target Gonadotropin-releasing hormone receptor (Homo sapiens) (UniProt P30968). Description: Human gonadotropin-releasing hormone receptor (GnRHR) small molecule agonists, calcium flux assay in GnRHR-HEK293 cells (AID 1920063). Also: nearly all actives have a fitted effect of over 35% in size. To be noted: calcium flux fluorescence, agonist mode; series mostly up to 57.6 µM. An excerpt: National Center for Advancing Translational Sciences [NCATS]
Sequence of UniProt P30968 (P30968 whole entry, looked up): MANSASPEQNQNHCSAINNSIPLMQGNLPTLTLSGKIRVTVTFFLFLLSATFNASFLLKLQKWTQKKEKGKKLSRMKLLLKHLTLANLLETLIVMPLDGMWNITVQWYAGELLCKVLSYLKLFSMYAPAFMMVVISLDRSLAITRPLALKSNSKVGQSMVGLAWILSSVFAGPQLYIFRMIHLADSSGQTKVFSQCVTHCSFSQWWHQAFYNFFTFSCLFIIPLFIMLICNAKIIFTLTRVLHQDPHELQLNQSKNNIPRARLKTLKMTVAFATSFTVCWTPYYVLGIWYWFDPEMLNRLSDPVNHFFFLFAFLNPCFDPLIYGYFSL
Division of Preclinical Innovation [DPI]
U.S. Environmental Protection Agency [EPA]
National Institutes of Environmental Health Sciences [NIEHS]
National Toxicology Program [NTP]
U.S. Food and Drug Administration [FDA]
Gonadotropin-releasing hormone receptor (GnRHR) is a G-protein-coupled receptor (GPCR) and acts (through phospholipase C) to increase intracellular inositol trisphosphate and then release intracellular calcium stores. Cell-based GnRHR-Hek293 calcium influx assay is using HEK293 cells that have been genetically engineered to express the human GnRHR, which activity can be measured by calcium signaling. A compound/drug can activate (agonist) GnRHR that can be monitored by levels of intracellular calcium.
GnRHR-HEK293 cells developed by Codex Corp contain human GnRHR reporter gene, which was stably integrated into HEK 293 cells. The compound activation can be detected by fluorescence intensity via calcium flux assay. This cell line has been used to screen the Tox21 10K compound library to identify GnRHR agonists.
GnRHR-Hek293 cells were dispensed at 1500cells/4uL/well in 1536-well black wall/clear bottom plates using a multidrop dispenser. After the assay plates were incubated at a 37 C/5% CO2 incubator for 18 hours, 4 uL of Calcium Dye Solution was added to each well. The plates were incubated at 37 C for 1 hour. For agonist mode, 23 nL of compounds dissolved in DMSO, positive controls or DMSO only was transferred to the assay plate by a pin tool station. The fluorescence intensity in the plates was measured using FDSS 7000EX kinetic plate reader with a filter set of Ex/Em=480/540 for 3 min at 1 sec intervals. Each test compound was measured at 15 concentrations and in triplicates.
(Calcium flux is commonly read through the fluorescence of an indicator in the cells.)
For the compound `CCOc1ccc2c(c1)C(C)=CC(C)(C)N2`, the Potency result was “active: 43.4 µM [sample A] and inactive [sample B]”.

With `Cn1cnc([N+](=O)[O-])c1Sc1ncnc2nc[nH]c12`, the Potency result was “active: 38.7 µM [sample A] and inactive [sample B]”.

In the case of `CC(=O)CC(=O)Nc1ccccc1C`, the Potency entry is “active: 44.1 µM [sample A] and inactive [sample B]”.

Regarding `Nc1ccc(N)c(Cl)c1`, the Potency entry was “inactive [sample A] and active: 8.71 µM [sample B]”.
